The record followed here is the RNAGym collection of RNA variant scans (doi:10.7554/elife.90254).

The source gives no read counts; variants with many changes may rest on few reads.

The chains are these.
B1: LINE1-full (parent)
chain: UACGUAGGUGGUUUUCCCCUGAUAGUGCUAAGGGGGCCUGGAAGUUUGGACUGGGCAGAGCUCAACACAGCGUGGCAAAGUGGCUGUGGCUAGACUGCCUCUCUGGAUUCCUCGUCACUCAGCAGGGCAUCUCUGAGAGAAAUGCC

Variants of B1 are the subject of this data set. Description: self-cleavage, relative activity (ratio to wild type); higher = more cleavage; in vitro, sequencing; the parent is a self-cleaving ribozyme.
Take A57G A64G U143C: the self-cleavage was determined as 0.54. U14C U112C A121G: the self-cleavage was found to be 2.87. Regarding U14C C120A A136G, the self-cleavage was determined as 1.3.

Consider U20G U62C G89U A121G, for which the self-cleavage came out at 0.05. Turning to U15A U45G A59U A129G, the self-cleavage was 0.31. As for U96C U102C U134C, the self-cleavage was determined as 0.09. With U26C A64G G105U G127U the figure was 0.68; with U62C U96C U132C, 0.08. The figure for U12A A57U U91C is 0.11; for A50U U112C A138G A141G U143A it is 1.17.

G48A A78G C99A: the self-cleavage amounted to 0.31.

As to U12G U23A A138U U143A, the self-cleavage is 2. On to A59U U81A G114A, for which the self-cleavage was 1.04.

U20A U96C U104A: the self-cleavage stood at 0.07. As for A57G A59C C84U U102C, the self-cleavage is 0.09. Take G34U U104C A107C C123U: the self-cleavage is 2.2. Consider A43U U119C G125A, for which the self-cleavage worked out at 1.18. For A50U A59U A64G, the self-cleavage was 0.2. With A43G U73C A124U, the self-cleavage was 1.84. U15C U104C A117U A142G: the self-cleavage was 2.24. On to U29C U85C G137U, for which the self-cleavage is 0.32. With G10A G53U U85A A92G A141G the figure was 0.08; with A77G U102C U132C A142G, 0.88. With U62C U108C U115C the figure was 0; with U1C A78G U119A, 0.42; with U39C A121G G122A, 1.12. For U14A U46C U52A U87A, the self-cleavage worked out at 0.09.

Regarding U15C G48A U112C, the self-cleavage stood at 1.04. As for G55A A107G A136G, the self-cleavage stood at 0.14. Turning to A59G U85C U100C A140G, the self-cleavage was 0. The figure for U47C A79G C113U is 0.25; for U13C A42G A141G it is 1.47. With G27A A65G A121G A141G C145A, the self-cleavage was determined as 0. With A2U A42G A59U, the self-cleavage was determined as 0.57. As for U20C U52A A57C U130C, the self-cleavage was found to be 0. Turning to A92U A141G A142C, the self-cleavage was determined as 0.8. As for U13C A69G U108C U132C U134C, the self-cleavage came to 0. As to A59G G114A U119A, the self-cleavage worked out at 0.1. C19U A107G U119A A141G: the self-cleavage amounted to 1.43.

On to U23C A57G A138G, for which the self-cleavage amounted to 1.53. With G89C U100C A141G the figure was 0.01; with G7A U9G U13A A30U, 1.2. For the variant U14C U15C U26C, the self-cleavage worked out at 1.39. Turning to U14C C19G U52C U132A, the self-cleavage stood at 1.17.

With U9A U52A U112C A140G, the self-cleavage amounted to 1.25.

Turning to A31G A79C U130A, the self-cleavage amounted to 1.72. In the case of U39C U62C U109A, the self-cleavage was 0. With A22G U47A U62A C90U U143C, the self-cleavage stood at 0.04. On to U14C G33C U130C C146U, for which the self-cleavage worked out at 1.6. Take U13C U52C G70U: the self-cleavage came to 0.1. With G32A U45A U102G U143C, the self-cleavage was 0.64.

As to U20C U39A A129U, the self-cleavage was found to be 1.07. Turning to U12G A69G U87C G89A, the self-cleavage is 0.16.

A30G A69G A140G: the self-cleavage came out at 0.23. The figure for U9A A65G A78G is 0. Consider A24C A78G U143G, for which the self-cleavage came out at 1.39. Take A65G A69G A78G A141G: the self-cleavage amounted to 0.3. Regarding A64G U91A A140G, the self-cleavage was determined as 0.12. U85C U102C U112A: the self-cleavage came out at 0.13. Consider G8A G55U G125A A140G U143C, for which the self-cleavage is 0.33. The figure for A79G U85C A124G U130C A142G is 0; for U9A U14C C37A U87C U100C it is 0.54. In the case of G10A A65G G127U, the self-cleavage is 0.06.

In the case of U62C U100C G105U U134G, the self-cleavage stood at 0.

Regarding U26C C38U A50U A121G, the self-cleavage is 1.88. In the case of A30G U39A C76A U100C U115C A117G U132A, the self-cleavage worked out at 1.02. Regarding U29C A64U U112C U115C, the self-cleavage was 0.43. With A31G A57G U143A the figure was 1.15; with A22G G93U C98U U143C, 0.03. With U45C A69G A138G the figure was 0; with U45C U100A U115A, 0.5; with G40U U91C U102A A142G, 0.74. The figure for U1C A69G U87G U104C A129G is 0; for U14C U62C A107G it is 0.1.

Turning to C19U A69G U119A U134C, the self-cleavage came to 0.2.

With U39C A42U U62A, the self-cleavage was found to be 0.03. As for G10A U108C G127A, the self-cleavage is 1.55.

On to G35A U39C A117G G125U, for which the self-cleavage came out at 1.12. Consider A22G C120U A124G U130C, for which the self-cleavage turned out to be 0.98.

In the case of U20C A67U A78C A117U, the self-cleavage worked out at 0.84. As to U13C A64G U119C, the self-cleavage amounted to 0.36. With G32C G54A U115C the figure was 0.8; with U87C U108C U132G, 0; with U15C A65G U102A, 0. Turning to U12A A22U U39G U87C U109A, the self-cleavage came to 0. Consider U39A A136G A138U, for which the self-cleavage worked out at 1.95. On to A57G U109A A121U, for which the self-cleavage is 0.61. Turning to U62A U112C C131G, the self-cleavage is 0.04.

Turning to U46C U104C A138G, the self-cleavage worked out at 2.04. A77U U85A A124G A136G: the self-cleavage turned out to be 0.05.

For G32A A65G G86A G93A, the self-cleavage came out at 0.02.

With A43U U100C A117U, the self-cleavage is 1.95.

With U47A A64C A65G A79G A136G, the self-cleavage was 0.31. With C99U U108C U109C A124G, the self-cleavage worked out at 0. As to U9C U14C U85A, the self-cleavage was 0.29. Consider U23C G83A G144A, for which the self-cleavage amounted to 0.91. Consider A67G U100A A140G A141G, for which the self-cleavage is 0.23. With U46C C56U A140G A142G the figure was 0.48; with U46C A78G U134C C145G, 1.84; with A6G A42G A43G G54C, 1.19. In the case of A22U U29C U73C A117G, the self-cleavage was found to be 1.67. With A67G U73A U100C G135U the figure was 0.94; with U13C A57G U119C A140U, 2.12; with G53A A124G G127U, 1.21. On to U14C A22U A78G, for which the self-cleavage was found to be 0.92.

Regarding U13C U73A C90U U102C G126U, the self-cleavage is 0.08.

Regarding G48A A69U U104A U112C A138G, the self-cleavage was found to be 0. The figure for A30G U47C G97A is 0.73. For the variant G4A U20A U91A A117G A138U, the self-cleavage turned out to be 0.42. U47C A94G U115C: the self-cleavage amounted to 1.31. For A6U G35A A50U A77G, the self-cleavage was found to be 0.89. The figure for A43G U96C G106U is 0.03; for A57G A78G A140G it is 0.37; for U45C A57G A59U U62C it is 0. A24G U108C A138G: the self-cleavage stood at 2.21. Consider G55A U85A A94G C101U A107G C120U, for which the self-cleavage was determined as 0.01.

As for A79G U91A U132C, the self-cleavage worked out at 0.19.

As to U13C A65G U73A, the self-cleavage worked out at 0.05. As to G4A G75U U104C, the self-cleavage is 0.68. In the case of A94G A107G U115A, the self-cleavage stood at 0.48. For U15C A57G A78G U104C, the self-cleavage stood at 0.37. Consider G55C A121C U143C, for which the self-cleavage amounted to 0.18. For A79G U87C A138G, the self-cleavage came out at 0.3. U14C U23C A78G A136G: the self-cleavage stood at 2.8. As for G10A A42C U81G, the self-cleavage stood at 0.81. Consider C16U U104C U134C, for which the self-cleavage was 2.59. Turning to G7A U14C U62C U112C A136G, the self-cleavage came out at 0.15. With U47C U104A A140G the figure was 0.44; with U13C A69G A92U U134C, 0.26.

With U47C A65G U109C A140G, the self-cleavage was found to be 0. In the case of U9C A42G U132C, the self-cleavage turned out to be 1.15.

Consider U15A A31G C123U A141G, for which the self-cleavage is 0.55. Regarding U45A U46C C61U A67G C84A A142G, the self-cleavage was 0.04.

Take A79G G86A A117G U130C: the self-cleavage turned out to be 0. With A31G A50G A140G the figure was 0.28; with A65G A67U A69G U73C U91A A124U, 0. As to U15C C56U U96C U102C U115C, the self-cleavage is 0.08. With G25U A43G U108C the figure was 1.67; with A24G U73A A94G A140U, 0.35; with U13C U15C G88A, 0. On to G25A U73A A77G A79U, for which the self-cleavage was determined as 2.73. As to U14C U47A U73A, the self-cleavage came out at 0.73. G21A A42G C71U: the self-cleavage turned out to be 0.66. On to A31U U47C C123U, for which the self-cleavage was found to be 1.37. With U9G U104A A129G the figure was 0; with U13C A24G A42G, 1.07. A22G G83U A94G: the self-cleavage was 0.21. For the variant U87A A124G A142G U143A, the self-cleavage came out at 0.11. Take C37G A59G U109C U115A A121G: the self-cleavage is 0.

Consider U14C A92G U109C, for which the self-cleavage was determined as 0.14. Regarding G11A U13C U46A G86A U132C A136G, the self-cleavage was 0.06. For the variant U14C U46C C63U A64G A124G, the self-cleavage was 0.

With C38U U108C A138G, the self-cleavage came out at 2.26.

As to A2G U12C U85A, the self-cleavage is 0.07. As to U13C U39C U47C A57G C116U C128U, the self-cleavage turned out to be 0. For the variant C3U A30G G35A A65U A79G, the self-cleavage was found to be 0.1. Consider U14C U85C A92C U96A A142G, for which the self-cleavage is 0. On to A67G C68A G127A, for which the self-cleavage amounted to 0.01.

Take G4A U109C U130C A140G: the self-cleavage was 1.12. In the case of U12G A42G U46C A65G, the self-cleavage is 0.

G7C A24G U91C U134C: the self-cleavage stood at 1.53. Turning to U9G A79G U85C, the self-cleavage was 0.57. Regarding U12C A50U C123U U132C, the self-cleavage turned out to be 0.83. Turning to U26C U47A A78C U85A, the self-cleavage came out at 0.09. With A117U C120U A142G the figure was 1.82; with A57U A67G A124G, 0.14. Take U26C A67U A107G A142G: the self-cleavage was found to be 0.15.
